The whole screen tested about 110,000 compounds, of which about 230 (0.21%) showed an effect of 50% or more. This is one part of the list.
molecular target: DPAP1 (Plasmodium falciparum, UniProt Q8IIJ9); assay: primary screen, percent inhibition; read by cleavage of a fluorogenic dipeptide substrate; higher = more effect of the substance; design: species or system P. falciparum D10 trophozoite lysates; single well
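Note: 30 min substrate incubation versus DMSO and 10 µM JCP410 controls.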

Chain of DPAP1 (Q8IIJ9 whole entry, looked up): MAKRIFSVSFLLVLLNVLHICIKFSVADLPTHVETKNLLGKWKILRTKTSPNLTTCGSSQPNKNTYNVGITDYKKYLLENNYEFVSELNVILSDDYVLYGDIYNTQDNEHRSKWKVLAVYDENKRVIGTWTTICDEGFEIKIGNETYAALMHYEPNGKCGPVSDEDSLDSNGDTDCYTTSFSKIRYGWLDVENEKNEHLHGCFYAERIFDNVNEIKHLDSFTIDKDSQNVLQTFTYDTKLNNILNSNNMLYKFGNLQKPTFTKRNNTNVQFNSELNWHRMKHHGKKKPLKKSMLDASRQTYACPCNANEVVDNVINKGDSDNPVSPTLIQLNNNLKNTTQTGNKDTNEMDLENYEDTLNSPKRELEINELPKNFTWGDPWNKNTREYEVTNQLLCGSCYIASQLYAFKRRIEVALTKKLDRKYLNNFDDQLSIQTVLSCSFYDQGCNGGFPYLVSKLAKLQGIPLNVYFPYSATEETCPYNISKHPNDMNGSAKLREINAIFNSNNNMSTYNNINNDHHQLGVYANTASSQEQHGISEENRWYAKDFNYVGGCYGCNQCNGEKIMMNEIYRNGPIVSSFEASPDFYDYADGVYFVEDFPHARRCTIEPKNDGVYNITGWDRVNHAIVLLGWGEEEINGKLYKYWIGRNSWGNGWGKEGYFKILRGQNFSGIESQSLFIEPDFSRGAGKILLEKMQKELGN

SMILES	% Inhibition @ 10 uM
Cc1nc2sccn2c1-c1csc(Nc2ncccn2)n1	-0.711%
CC1(C)CC(=O)C2=C(C1)NC(=O)CC2c1ccccc1 (stereo not shown)	-2.2%
O=C(O)c1ccc(-n2c(S)nnc2-c2ccc(Br)cc2)cc1	-1.24%
COc1cc(OC)c(CN2CCN(C)CC2)cc1Br	3.1%
CCOC(=O)c1c(CN(C)C)n(C)c2cc(Br)c(O)cc12	0.708%
COCc1cc(O)n2nc(Cc3ccccc3)c(-c3ccc(Cl)cc3)c2n1	-1.66%
NC(=O)C1CCN(C2CCCCCCC2)CC1	-5.44%
Cn1c2ccccc2c2c(C(=O)N3CCN(Cc4ccccc4)CC3)cn(C3CCCC3)c(=O)c21	3.48%
CC1CC(C)CN(C(=O)c2cc3sccc3n2C)C1 (stereo not shown)	0.291%
CCOCCCNCc1c(Cl)cccc1Cl	0.387%
COc1ccc(CNC(=O)c2ccc(Br)o2)cc1	3.67%
COc1ccc(/N=C/c2c(C)nn(-c3ccccc3)c2S)cc1	-5.34%
Cc1nc2ccccc2c2oc(C(=O)NCCCN3C(C)CCCC3C)cc12 (stereo not shown)	-0.0115%
CCCCN(C)C(=O)Cn1ncc2c3ccccc3n(C)c2c1=O	-1.92%
CCN(CC)C(=O)Cn1cc(SCc2ccccc2F)c2ccccc21	1.39%
O=C(Nc1ccc([N+](=O)[O-])cc1)c1c(F)cccc1F	-4.08%
Cc1nc(SCC(=O)N2CCC(C)CC2)c2c3c(sc2n1)CCC3	-0.545%
CCC(C)(C)C1CCc2c(sc(NC(=O)CCC(=O)O)c2C#N)C1 (stereo not shown)	2.36%
CCCC1=C(C(=O)OCC)C(c2ccc3ccccc3c2)C(C#N)=C(N)O1 (stereo not shown)	4.66%
COc1cc(NC(=O)c2scc3c2OCCO3)c(OC)cc1Cl	0.316%
COc1ccccc1CN=C(N)N	1.63%
CCCC1CCc2c(sc(NC(=O)CCCC(=O)O)c2C#N)C1 (stereo not shown)	1.4%
Cc1cc(O)c(C(=O)/C=C/c2ccccc2Br)c(=O)o1	-3.03%
O=C(c1nn2c(C(F)(F)F)cc(-c3ccco3)nc2c1Br)N1CCCC1	0.907%
COc1ccc(-c2cc(C(=O)NCCN3CCOCC3)c3ccccc3n2)cc1OC	-1.61%
O=C(Nc1ccc(S(=O)(=O)Nc2nccs2)cc1)Nc1cccc(Cl)c1	-5.13%

SMILES	% Inhibition @ 10 uM
CCCC(=O)NC(c1ccc(OC)cc1)c1c(O)ccc2ccccc12 (stereo not shown)	1.86%
O=C(O)C1CCCCC1C(=O)Nc1ccc(Cl)c(Cl)c1 (stereo not shown)	-11.4%
CCN1C(=O)N/C(=C/c2ccc(OCc3cccc(C(=O)O)c3)c(Cl)c2)C1=O	0.795%
CCOC(=O)C1CCCN(Cc2ccc(F)cc2F)C1 (stereo not shown)	6.18%
CC1=C(C(=O)OCc2ccc(C)cc2)C(c2cccc(Cl)c2)CC(=O)N1 (stereo not shown)	0.8%
Nc1nnc(CC(=O)N2CCOCC2)o1	0.558%
OCCN1CCN(Cc2ccc(F)c(Br)c2)CC1	-3.04%
O=C(O)c1ccccc1C(=O)OCc1ccccc1	5.98%
CCOc1ccc(CNC(=O)C2CCCN(S(=O)(=O)N3CCC(C)CC3)C2)cc1OC (stereo not shown)	0.387%
CC1=NCCn2cccc21	-0.128%
CC(C)=C1C2C=CC1C1C(=O)N(c3cccc4ccccc34)C(=O)C21 (stereo not shown)	-0.413%
O=C1/C(=C/c2ccc3nccnc3c2)CC/C1=C\c1ccc2nccnc2c1	-0.503%
O=C(NCCc1ccccc1)C1CCN(S(=O)(=O)c2cccc3nonc23)CC1	-5.88%
O=C(Nc1ccccc1F)c1ccc([N+](=O)[O-])o1	3.47%
Cn1c(C(F)(F)F)nc2ccccc21	-2.37%
O=C(CC(NCc1ccccc1)c1ccccc1O)NCc1ccccc1 (stereo not shown)	12%
Cc1ccnc(SCC(=O)N2CCC(c3c[nH]c4ccccc34)(c3c[nH]c4ccccc34)CC2)n1	4.22%
COc1ccc(Cl)cc1S(=O)(=O)N1CCC(c2nnc(-c3ccc(C)cc3)o2)CC1	17.7%
CCc1ccc(CN(C(=O)c2cc(=O)c3cc(C)c(C)cc3o2)C2CCS(=O)(=O)C2)cc1 (stereo not shown)	-1.47%
CCN(CC)c1ccc(NC(=O)C2CCCCC2)cc1	0.83%
CCOc1ccc2[nH]c(SCc3c(F)c(F)c(F)c(F)c3F)nc2c1	-0.129%
Clc1cccc(N2CCN(Cc3ccc4c(c3)OCO4)CC2)c1	-0.127%
COc1ccc(OCCNC(=O)Nc2cc(F)c(F)cc2Cl)cc1	-3.04%
CCN1c2ccccc2C(c2ccccc2)=C(C(N)=O)C1C (stereo not shown)	-5.3%
CCOC(=O)c1cc(-c2ccc(C)cc2)n(CCC(=O)NCc2cccnc2)c1C	3.32%
O=C(CSc1ccccc1C(=O)O)c1ccc(Cl)cc1	-2.58%

SMILES	% Inhibition @ 10 uM
CCCc1nc(C)cc(N2CCC(C)CC2)n1	-2.88%
O=C(O)c1ccccc1C(=O)N1CCN(C(=O)c2ccccc2C(=O)O)CC1	-1.4%
CC(NC(=O)Cn1ccc2cc(S(=O)(=O)N3CCCC3)ccc21)c1ccccc1 (stereo not shown)	-1.26%
O=C(C1CC2CCC1C2)N1CCN(c2cccc(C(F)(F)F)c2)CC1 (stereo not shown)	3.32%
Cc1ccc(N2C(=O)N(c3ccccc3C)C3CS(=O)(=O)CC32)cc1 (stereo not shown)	3.86%
c1ccc2c(c1)CCCC2NCc1c[nH]c2ccccc12 (stereo not shown)	-5.48%
N#C/C(=C\c1cccs1)c1nc(-c2ccccc2)cs1	-1.97%
c1ccc(-c2cc(NCCN3CCOCC3)n3c(n2)nc2ccccc23)cc1	0.635%
O=C(N/C(=C\c1ccco1)C(=O)N1CCOCC1)c1ccco1	7.1%
Cc1cc(/C=C2\SC(=O)N(C)C2=O)c(C)n1-c1cccc(C(=O)O)c1	0.484%
Cn1c(CCCNC(=O)c2ccc(Cl)cc2)nc2ccccc21	-2.01%
CC1C(CN2CCOCC2)=C(c2ccccc2)Oc2ccccc21 (stereo not shown)	-4.43%
CCOc1ccccc1NC(=O)C1=C(C)NC(=O)NC1c1ccccc1OC (stereo not shown)	-4.39%
CCCCO/C(O)=C1\C(C)=NC2=C(C(=O)CCC2)C1c1cccc(Cl)c1Cl (stereo not shown)	7.58%
COc1cc(C(=O)N2CCN(C(=O)COc3ccc(Cl)cc3)CC2)cc(OC)c1OC	-1.6%
Cc1ccc2n1CCn1cc(-c3ccccc3)cc1-2	2.94%
CCCCN(C)C(=O)c1ccc(Br)o1	-0.294%
Cc1noc(C)c1S(=O)(=O)NC1CCCCCC1	-6.91%
COc1ccc(S(=O)(=O)Nn2cnnc2)cc1	0.736%
O=[N+]([O-])c1ccc(N2CCCC2)c(Cl)c1	0.00784%
NS(=O)(=O)c1ccc(CCNC(=O)CN2C(=O)c3ccccc3C2=O)cc1	-9.24%
CC(NC1CCN(CCc2ccccc2)CC1)c1ccc(F)cc1 (stereo not shown)	-3.15%
Cc1ccc(CNC(=O)c2ccccc2C(=O)NCc2ccc(C)cc2)cc1	0.389%
O=C(NCCCN1CCCC1=O)c1cc2c(s1)-c1ccccc1OC2	-1.37%
CCCNC(=O)C(Sc1ccccc1)c1ccccc1 (stereo not shown)	-2.8%
CC(C)(C)c1cc(-c2cc(C(C)(C)C)[nH]n2)[nH]n1	4.17%

SMILES	% Inhibition @ 10 uM
CCOC(=O)c1nn(-c2ccc(F)c(Cl)c2)cc1O	0.147%
Cc1nn(CC(=O)N2CCCCCC2)c(=O)c2cc3sccc3n12	-5.19%
Cc1nc2sccn2c(=O)c1S(=O)(=O)NCC(C)c1ccccc1 (stereo not shown)	2%
COc1ccc(C2CC3=Nc4ccccc4NC(c4cccs4)C3=C(O)C2)cc1OC (stereo not shown)	2.36%
COc1ccccc1-c1coc2cc(OCc3cc(Cl)cc4c3OCOC4)ccc2c1=O	-1.11%
Cc1ccc(S(=O)(=O)c2cnc(SCC(=O)NCc3ccccc3)nc2N)cc1	2.75%
Clc1ccc(-c2nnc(-c3ccc(-c4ccccc4)cc3)o2)cc1	-8.01%
CCN(CC)CCC(=O)NC(C)(C)Cc1ccc(O)cc1	-0.703%
CN1C(=O)C2Cc3c([nH]c4ccccc34)C(c3ccccc3)N2C1=S (stereo not shown)	3.58%
Cn1c(=O)c2c(ncn2CC(=O)Nc2nnc(CC(C)(C)C)s2)n(C)c1=O	3.54%
CCN(CC)c1ccc(C2C3=C(O)CC(C)(C)CC3=Nc3ccccc3N2C(=O)C(C)C)cc1 (stereo not shown)	-0.267%
Cc1oc(-c2ccc(Cl)cc2)nc1CS(=O)CC(=O)NCc1ccccn1 (stereo not shown)	-1.05%
CCSc1nnc(NC(=O)c2cc(=O)c3ccc(C)c(C)c3o2)s1	5.06%
CN1CCC(N(C)CC2CC=CCC2)CC1 (stereo not shown)	3.15%
CC(C)(C)c1ccc(C(=O)O/N=C(\N)Cc2cccs2)cc1	-6.95%
Nc1ccc2nc(O)nc(-c3ccccc3)c2c1	-3.85%
COc1cc(C(=O)NC2(C(F)(F)F)C(=O)Nc3c2c(=O)n(C)c(=O)n3C)cc(OC)c1OC (stereo not shown)	-5.2%
O=C(NCCCc1ccccc1)C(Cc1ccccc1)N1Cc2ccccc2C1=O (stereo not shown)	3.87%
O=C(O)c1c(CNCCCc2ccccc2)c2ccccc2n1Cc1ccccc1F	-1.44%
O=C(CCc1nnc2n(CCc3ccccc3)c(=O)c3ccccc3n12)NCc1ccco1	-2.42%
CCC(C)c1ccc(NC(=O)CSc2ncccn2)cc1 (stereo not shown)	-7.75%
Cc1cccc(CCNC(=O)c2cn(C3CCCC3)c(=O)c3c2c2ccccc2n3C)c1	5.06%
COc1cccc(CNc2nc3ccc(C)cc3n3cnnc23)c1	-5.29%
CCN1CCCC1CNC(=O)c1ccc2c(c1)sc1nc(-c3ccc(F)cc3)cn12 (stereo not shown)	9.08%
Cc1ccc(S(N)(=O)=O)cc1NC(=O)c1ccc(S(=O)(=O)N(C)C)cc1	4.74%

Source: article PMC6919601, “Identification of Plasmodium dipeptidyl aminopeptidase allosteric inhibitors by high throughput screening” (PLoS ONE, 2019)
